To fix the notation:
B1: TPR 5TU (parent)
chain: GGAUCUUCUCGAUCUAACAAAAAAGACAAAUCUGCCACAAAGCUUGAGAGCAUCUUCGGAUGCAGAGGCGGCAGCCUUCGGUGGCGCGAUAGCGCCAACGUUCUCAACUAUGACACGCAAAACGCGUGCUCCGUUGAAUGGAGUUUAUCAUG

The record followed here is the RNAGym collection of RNA variant scans (doi:10.1073/pnas.2313332121).

Variants at the background level are over-represented here.

Variants of B1 are the subject of the data set. As to the kind of experiment: polymerase ribozyme fitness, log enrichment relative to wild type (log ratio); higher = more active; in vitro selection for triplet polymerase activity. In a few lines: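 One round of in vitro selection, in triplicate, was applied to PCR-built, transcribed mutant libraries of each subunit of a heterodimeric triplet polymerase ribozyme. The steps were annealing with a biotinylated primer, partner subunit and triplets, incubation frozen at −7 °C, gel excision of extended constructs, streptavidin-bead capture and RT-PCR. Fitness is the logarithm, base 2, of genotype enrichment over wild-type enrichment from inverse-variance-weighted replicate averages of Illumina-sequenced inputs and outputs, keeping genotypes with ≥10 input reads and ≥1 read per output.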
For the variant U4G G48C G70A G81A G83A G124A G136A, the “polymerase ribozyme fitness (log ratio)” value is at most -4.2.
For the variant U4C A19G G34C A52C U56A C87A G133C, the “polymerase ribozyme fitness (log ratio)” value is at most -4.2.
Consider U4C C85A, for which the “polymerase ribozyme fitness (log ratio)” value was -1.34.
As to U4A G59A, the “polymerase ribozyme fitness (log ratio)” value was -1.06.
To U4G U90A G94U C95U C116G C118G C123G belongs at most -4.2; to U4G A39U A40U A91U C95G, at most -4.2; to U4C G74A, -3.29.
Regarding U4C C8U A23G A60U G68A C79A C116U C125G, the “polymerase ribozyme fitness (log ratio)” value is at most -4.2.
C5A A16G A24U C27A A41C G68A U77C G124A C125G: the “polymerase ribozyme fitness (log ratio)” value is at most -4.2.
On to U4C A29U C36G C76A G86A, for which the “polymerase ribozyme fitness (log ratio)” value was at most -4.2.
Turning to U4A U6G A26C C36U G46C U55A G92U, the “polymerase ribozyme fitness (log ratio)” value is at most -4.2.
To U4G A52G G68C A106G A142C U148G G152U belongs at most -4.2; to U4A C85G C93G, at most -4.2.
For U4G A20G C35U G94C A97G C118A A137G A142U the value was -4.11; for U4A G94A, -0.663; for U4G A39U G50C G58A C87A G100A, at most -4.2.
On to U4A C8G U61G U78A G88C A89C, for which the “polymerase ribozyme fitness (log ratio)” value was at most -4.2.
As for U4A G11C A41U G50C G58A G59U U82C C87U G92U G140A, the “polymerase ribozyme fitness (log ratio)” value is at most -4.2.
On to C5A A12G C27U C93U G94C G141A, for which the “polymerase ribozyme fitness (log ratio)” value was at most -4.2.
In the case of U4C A22C C32A A41U G126A, the “polymerase ribozyme fitness (log ratio)” value was at most -4.2.
To U4A C38U A41U G59A A137U belongs -4.07; to U4G A30C U78C C95G A119C, at most -4.2.
On to U4C C14G A17G A91G C93A C96G C116G, for which the “polymerase ribozyme fitness (log ratio)” value was at most -4.2.
Regarding U4C G58U C75A A91U U104G U144A C149U, the “polymerase ribozyme fitness (log ratio)” value was at most -4.2.
As to U4C C32U U44A U55A A60U C75A A97G G133A G136A, the “polymerase ribozyme fitness (log ratio)” value was at most -4.2.
For U4C U7G C87A G100A U101A the value was at most -4.2; for U4G G11C U44G, at most -4.2.
U4G U15A A28U G83U C87U U102G: the “polymerase ribozyme fitness (log ratio)” value was at most -4.2.
On to C5A A20U G80U C93U U109G, for which the “polymerase ribozyme fitness (log ratio)” value was at most -4.2.
For U4G C36U C87A A120U A150C, the “polymerase ribozyme fitness (log ratio)” value was at most -4.2.
For the variant U4A A24U C57A C93U G94U G141U, the “polymerase ribozyme fitness (log ratio)” value was -2.67.
U4C C14A A17U G58U A66C G68C G126A U145G: the “polymerase ribozyme fitness (log ratio)” value was at most -4.2.
Take U4C A24U G81A C85U A89C: the “polymerase ribozyme fitness (log ratio)” value is -0.962.
Take U4C C18G A40C A49G U135G: the “polymerase ribozyme fitness (log ratio)” value was at most -4.2.
To U4A U13A U78C G94U C116G U151A belongs at most -4.2.
Take C5A A17C G88A G117U: the “polymerase ribozyme fitness (log ratio)” value was -3.46.
For the variant U4G A21G A47C A52G G88C A98U A107C G136C U144C, the “polymerase ribozyme fitness (log ratio)” value is at most -4.2.
To U4G G11C A40U G50C G83U belongs at most -4.2; to U4G C85A C87G A89G C95G, at most -4.2; to C5A A20C A40G A41U A52C G80A G83A C103U A107U, at most -4.2.
For the variant U4A C36A A52C A73G C95U, the “polymerase ribozyme fitness (log ratio)” value was at most -4.2.
As for U4A A30U A52U C93A, the “polymerase ribozyme fitness (log ratio)” value is at most -4.2.
For U4G A24G G50A G62U C75A G92U G117A G136C the value was at most -4.2.
Regarding U4C C18A C54A U55G C85G, the “polymerase ribozyme fitness (log ratio)” value was at most -4.2.
For U4C A30C C35U A97C C105G U127G U139C A142G the value was at most -4.2.
Consider U4G A97U, for which the “polymerase ribozyme fitness (log ratio)” value was found to be 0.0622.
To U4A A147C belongs -0.789.
For U4A C5U G25C G80A C95U C96U C103U G126U U144A the value was at most -4.2; for U4G U6G A29G G88U, at most -4.2; for U4A U15G A29U A49G G50C U56A C79U G84U A98C U146A, at most -4.2.
As for U4A A37C A40C C87U U101G A115C G141C, the “polymerase ribozyme fitness (log ratio)” value is at most -4.2.
For the variant C5A A12U, the “polymerase ribozyme fitness (log ratio)” value is 0.264.
Take U4C C76A C93U G141C: the “polymerase ribozyme fitness (log ratio)” value is at most -4.2.
With U4A C38U C57A A66G C96G C105A C123G G124A C129G, the “polymerase ribozyme fitness (log ratio)” value was at most -4.2.
As to C5A A20C A30U U31C A40U C95A C96A, the “polymerase ribozyme fitness (log ratio)” value is at most -4.2.
For U4A U7G A23U A28U U53A U82A G92A A120G, the “polymerase ribozyme fitness (log ratio)” value was at most -4.2.
For the variant U4A C43U G65U U77C U111G, the “polymerase ribozyme fitness (log ratio)” value was at most -4.2.
As to U4A C57U A60C C76A G86A U102G C108G C118G A120U, the “polymerase ribozyme fitness (log ratio)” value is at most -4.2.
Consider U4C A20U C27G C85A A110G U135C G136U G143C, for which the “polymerase ribozyme fitness (log ratio)” value is at most -4.2.
As to U4G A16U C38U G59U G67C C108U A121U C132G, the “polymerase ribozyme fitness (log ratio)” value was at most -4.2.
U4C C8A U15G A19U U55G C85A A137G: the “polymerase ribozyme fitness (log ratio)” value is at most -4.2.
On to A3U U61G G70U C75U C93U G140U, for which the “polymerase ribozyme fitness (log ratio)” value is at most -4.2.
As to U4A C8A A12G G92A C95A, the “polymerase ribozyme fitness (log ratio)” value was at most -4.2.
With U4G C38U C93G, the “polymerase ribozyme fitness (log ratio)” value is -2.52.
For U4C C18U A41C A60C C79U C87U A98C U101C G133U C149U the value was at most -4.2; for U4C C69A C76A U109C, at most -4.2.
Turning to C5A A20U C35U A91C U101A C105G U145G, the “polymerase ribozyme fitness (log ratio)” value is at most -4.2.
With C5A A21C C69A A73C G84U U109C C118A, the “polymerase ribozyme fitness (log ratio)” value was at most -4.2.
Regarding U4A A12U G81C C87G C93G A98U C118U G133C, the “polymerase ribozyme fitness (log ratio)” value was at most -4.2.
U4C U53A A66G C69U G83U G94C: the “polymerase ribozyme fitness (log ratio)” value was at most -4.2.
In the case of U4A U6A U7G G11A U31G C35G G58A C85G G126C, the “polymerase ribozyme fitness (log ratio)” value is at most -4.2.
For U4C C10U A16C U90A A97U C116U the value was at most -4.2.
Consider U4A A17U C27G U77G C93G, for which the “polymerase ribozyme fitness (log ratio)” value is at most -4.2.
U4C U6G U55A C93G C103G A150U: the “polymerase ribozyme fitness (log ratio)” value was at most -4.2.
Take U4G C76U G83U A98C A138C U139G: the “polymerase ribozyme fitness (log ratio)” value was at most -4.2.
To U4G A19G A28C G80C U82C U101A C105G A106U G126A G140C belongs at most -4.2.
For the variant U4C C18G A41C C75U C93G A120G, the “polymerase ribozyme fitness (log ratio)” value is at most -4.2.
Turning to U4A A17U A22G C35U C75A C79A G92C, the “polymerase ribozyme fitness (log ratio)” value was at most -4.2.
Turning to U4G A49U C57U U82G A91U, the “polymerase ribozyme fitness (log ratio)” value was at most -4.2.
As to C5A A20U G48C U55A U56G C99U A110G U135A, the “polymerase ribozyme fitness (log ratio)” value is at most -4.2.
To U4C A49G C51A C87A C132U A150C belongs at most -4.2; to U4A C5G A20U C51U C54G A142G U146A C149G, at most -4.2; to U4A C18G A37U A47G G70C U134A, at most -4.2.
